Results on 44 compounds are retold here after paper PMC4336329 (PLoS ONE, 2015).

Screen size: about 310,000 compounds; about 14,000 (4.5%) showed an effect of 50% or more. Effects have a minus sign here. This is one part of the list.
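Also: peak tail current of the secondary pulse compared with the same well before compound.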

Chain of human ether-à-go-go-related gene (hERG) potassium channel (Q12809 whole entry, looked up): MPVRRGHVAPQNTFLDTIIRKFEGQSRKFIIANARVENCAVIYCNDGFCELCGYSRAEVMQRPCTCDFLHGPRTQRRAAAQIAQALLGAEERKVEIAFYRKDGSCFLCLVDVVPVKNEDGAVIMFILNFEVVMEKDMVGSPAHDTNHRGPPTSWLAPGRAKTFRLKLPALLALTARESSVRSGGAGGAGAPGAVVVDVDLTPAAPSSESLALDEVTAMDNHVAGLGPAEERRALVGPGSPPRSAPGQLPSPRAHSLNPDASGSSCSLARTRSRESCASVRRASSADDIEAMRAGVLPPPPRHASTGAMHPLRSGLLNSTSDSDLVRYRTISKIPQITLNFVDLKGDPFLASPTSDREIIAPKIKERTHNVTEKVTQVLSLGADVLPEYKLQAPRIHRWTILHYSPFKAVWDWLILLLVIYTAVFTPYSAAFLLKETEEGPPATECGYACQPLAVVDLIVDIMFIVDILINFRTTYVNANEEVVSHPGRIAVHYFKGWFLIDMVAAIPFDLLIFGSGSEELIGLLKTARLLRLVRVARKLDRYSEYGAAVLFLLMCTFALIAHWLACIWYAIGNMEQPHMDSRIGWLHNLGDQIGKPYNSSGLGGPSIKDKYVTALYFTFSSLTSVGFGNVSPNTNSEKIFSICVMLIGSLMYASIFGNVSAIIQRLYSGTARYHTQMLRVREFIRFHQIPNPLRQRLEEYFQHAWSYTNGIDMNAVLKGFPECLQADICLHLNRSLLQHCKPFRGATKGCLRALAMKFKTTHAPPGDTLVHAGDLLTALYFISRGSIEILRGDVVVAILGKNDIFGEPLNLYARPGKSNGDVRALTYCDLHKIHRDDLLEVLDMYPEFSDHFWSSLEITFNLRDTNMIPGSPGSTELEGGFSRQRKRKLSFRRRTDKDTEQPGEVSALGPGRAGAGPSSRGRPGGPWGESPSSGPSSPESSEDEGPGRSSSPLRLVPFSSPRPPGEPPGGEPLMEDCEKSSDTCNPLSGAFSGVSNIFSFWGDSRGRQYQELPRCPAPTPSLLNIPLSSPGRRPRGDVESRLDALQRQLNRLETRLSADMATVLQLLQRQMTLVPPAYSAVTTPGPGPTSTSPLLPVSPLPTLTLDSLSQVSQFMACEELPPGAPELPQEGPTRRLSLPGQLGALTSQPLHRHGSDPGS

The test addresses human ether-à-go-go-related gene (hERG) potassium channel (human, UniProt Q12809). Kind of test: primary screen, population patch clamp on CHO cells stably expressing hERG.
Take `C[C@H](NC(=O)[C@H]1N2C(=O)c3ccccc3C2SC1(C)C)C(=O)N1CCC[C@H]1C(=O)O` (some centres unmarked): the “hERG current change (%, negative = inhibition) at 10uM” value stood at 22.4%.
For `Cc1c(C(N)=O)sc2ncn(CC(=O)OC(C)C)c(=O)c12`, the “hERG current change (%, negative = inhibition) at 10uM” value is 11%.
The same measure for `CCOC(=O)C(CCc1nnc(N)s1)C(=O)OCC`: -2.77%; for `O=C(Nc1ccc(Cl)cc1)Nc1nc(-c2ccccc2O)cs1`: 11.6%.
In the case of `COc1ccc(Cn2c(C)nc([N+](=O)[O-])c2SCC(=O)O)cc1[N+](=O)[O-]` it was 16.5%; in that of `Cc1[nH]n(-c2ccccc2)c(=O)c1N=Nc1ccc2c(c1)OCCO2`, 16.4%; in that of `O=C(O)c1ccc(NC(=O)c2cccc(C(=O)Nc3ccc(C(=O)O)cc3)n2)cc1`, 8.92%.
In the case of `CCCn1nnnc1NCc1cc(Br)ccc1OC` it was 0.0141%; in that of `CC(C)C[C@@H](C)C(=O)N(Cc1ccccc1)c1ccccc1`, -20.2%.
As for `CCCNS(=O)(=O)c1ccc(OCC(=O)N2CCN(Cc3ccccc3)CC2)cc1`, the “hERG current change (%, negative = inhibition) at 10uM” value is -28.6%.
Consider `COc1cccc(Nc2cc(C)c3ccccc3n2)c1`, for which the “hERG current change (%, negative = inhibition) at 10uM” value worked out at 6.21%.
The same measure for `CSc1ccccc1NC(=S)Nc1ccc(S(N)(=O)=O)cc1`: 10.7%; for `CCCCCCCC/C=C\CCCCCCCC(=O)NCCc1ccc(O)c(O)c1`: 8.81%.
In the case of `CCC(CC)c1nnc(NC(=O)CCc2ccc(OC)cc2)s1` it was 13.1%; in that of `COC(=O)c1[nH]c(C)c(/C(O)=C2\C(=O)C(=O)N(CCN3CCOCC3)C2c2cccnc2)c1C` (centres unmarked), -29.2%; in that of `O=C(Nc1ccccc1)c1cccc(NC(=O)c2ccco2)c1`, -30.5%.
Turning to `COc1ccc(/C=N/NC(=O)c2cc(=O)[nH]c3ccccc23)cc1OC`, the “hERG current change (%, negative = inhibition) at 10uM” value is recorded as 20.5%.
In the case of `O=c1c2oc3ccccc3c2[nH]c(=S)n1-c1ccccc1` it was 18.2%; in that of `Cc1cc(C)n(-c2ccc(S(=O)(=O)N3CCOCC3)cc2[N+](=O)[O-])n1`, -10.9%.
With `COc1cc(/C=C/C(=O)OCC(=O)NCc2ccccc2OC)ccc1O`, the “hERG current change (%, negative = inhibition) at 10uM” value is listed as -14.1%.
As to `Cn1c(=O)c2sccc2n(CC(=O)NCCC2=CCCCC2)c1=O`, the “hERG current change (%, negative = inhibition) at 10uM” value is recorded as -1.94%.
Take `Cc1cc2oc(C(=O)N(Cc3ccc(N(C)C)cc3)CC3CCCO3)c(C)c2cc1C` (centres unmarked): the “hERG current change (%, negative = inhibition) at 10uM” value is given as -17.2%.
Regarding `COc1ccc(NC(=O)c2sc3cc(C(F)(F)F)cnc3c2-c2cccs2)cc1`, the “hERG current change (%, negative = inhibition) at 10uM” value is given as -8.76%.
In the case of `CCc1ccc(-c2csc(NC(=O)C3=COCCO3)n2)cc1` it was 4.81%.
The same measure for `CCOc1ccc(S(=O)(=O)Nc2ccc(C(=O)NCCCN3CCOCC3)cc2)cc1`: -17.4%; for `COC(=O)C1=C(c2ccccc2OCc2ccccc2)C[C@@H]2CC[C@H]1N2C(=O)NCCOc1ccc(OC)cc1`: 12.9%; for `COC(=O)c1ccc(N2Cc3ccccc3/C2=N\C(=O)Nc2ccccc2)cc1`: 0.09%.
In the case of `COC(=O)c1ccc(C2C(C(=O)c3cc4ccccc4o3)=C(O)C(=O)N2CCN2CCOCC2)cc1` (centres unmarked) it was 10%; in that of `CCOC(=O)C(C(=O)OCC)[C@@H]1CS(=O)(=O)C[C@H]1C(C(=O)OCC)C(=O)OCC`, -2.43%; in that of `CC(C)CC(NC(=O)C1CCCCC1)C(=O)NC(C)c1ccccc1` (centres unmarked), -5.01%.
In the case of `O=C(Nc1ccccc1Cl)C1CCCN(S(=O)(=O)c2cccc3cccnc23)C1` (centres unmarked), the “hERG current change (%, negative = inhibition) at 10uM” value was -3.2%.
The same measure for `CC(C)N(CCCNC(=O)Cn1c(=O)c2cccn2c2ccc(F)cc21)Cc1ccccc1`: -44%; for `COC(=O)c1sc(NC(=O)c2cnccn2)c(C(=O)OC)c1C`: 18.7%; for `Cc1cc(C)nc(Nc2n[nH]c(-c3ccccc3N)n2)n1`: 17.5%.
The same measure for `CC(=O)c1cc(F)c(N2CCCCCC2)cc1C`: 3.25%; for `Cc1ccc(-c2nnc(Nc3ccc(CC(N)=O)cc3)c3ccccc23)cc1`: -4.35%; for `O=C(N/N=C/C(Br)=C/c1ccccc1)c1ccncc1`: 0.715%.
In the case of `CCc1nnc2c3cnn(-c4ccccc4)c3ncn12` it was 3.01%; in that of `CC12CCC(c3c(C(=O)O)nn(-c4ccccc4)c31)C2(C)C` (centres unmarked), 0.338%; in that of `O=C(Nc1ccc(Cl)cc1)N1CCCC(Cn2cccc2)C1` (centres unmarked), 3.58%.
For the compound `C=CCSc1nc2c(cc1C#N)CCC2`, the “hERG current change (%, negative = inhibition) at 10uM” value is -9.95%.
`Cc1c(C)n(C)c2ccc(C(=O)NCCCN3CCOCC3)cc12`: the “hERG current change (%, negative = inhibition) at 10uM” value turned out to be 10.8%.
The same measure for `CC/C([O-])=N\S(=O)(=O)c1ccc(N=NN(C)C)cc1.[K+]`: 0.502%; for `Cc1ccc(NC(=O)O/N=C/c2cccc([N+](=O)[O-])c2)cc1`: -15.8%.
